Measured values published in the RNAGym collection of RNA variant scans (doi:10.7554/elife.90254).
Read counts are not given, so values of variants with three or more changes are uncertain.

B1: LINE1-full (parent)
chain: UACGUAGGUGGUUUUCCCCUGAUAGUGCUAAGGGGGCCUGGAAGUUUGGACUGGGCAGAGCUCAACACAGCGUGGCAAAGUGGCUGUGGCUAGACUGCCUCUCUGGAUUCCUCGUCACUCAGCAGGGCAUCUCUGAGAGAAAUGCC

Variants of: B1
Assay: self-cleavage, relative activity (ratio to wild type); higher = more cleavage; in vitro, sequencing; the parent is a self-cleaving ribozyme

Variant	self-cleavage
UACGUUGGUGGUGUUCCCCUGAUAGAGCUAAGGGGGCCCGGAAGUUUGGACUGGGCAGAGCUCAGCACAGCGUGGCAAAGUGGCUGUGGCUAGACUGCCUCUCUGGAUUCCUCGUCACUCAGCAGGGCAUCUCUGAGAGAAAUGCC [A6U U13G U26A U39C A65G]	0
UACGUUGGGGGUUCUCCCCUGAUAGUGCUAAGGGGGCCUGGAUGUUUGGACUGGGCAGAGCUCAACACAGCGUGGCAAAGUGGCUGUGGCUGGACUGCCUCUCUGGAUUCCUCGUCACUCAGCAGGGCAUCUCUGAGAGAAAUGCC [A6U U9G U14C A43U A92G]	0.44
UACGUUGGUGGUUUUCCCCUGAUAGUGCUAAGGGGGCCUGGAAGUUUGGACUGGGCAGAGCUCAACACAGCGUGGCAAAGUGGCUGUGGCUAGACUGCCCCUCUGGAUUCCUCGUCACUCAGCAGGGCAUCUCUGAGGGAAAUGCC [A6U U100C A138G]	2.3
UACGUUGGUGGUUUUCCCCUGAUAGUGCUAAGGUGGCCUGGAAGUUUGGACUGGGCAGAGCUCAUCACGGCGUGGCAAAGUGGCUGUGGCUAGACUGCCUCUCUGGAUUCCUCGUCACUCAGCAGGGCAUCCCUGAGAGAAAUGCC [A6U G34U A65U A69G U132C]	0.35
UACGUUGGUGGUUUCCCCCUGAUAGUGCUAAGGGGGCCUGGAAGUUUGGACUGGGCAGAGCUUAACACAGCGUGGCAAAGUGGCUGUGGCCAGACUGCCUCUCUGGAUUCCUCGUCACUCAGCAGGGCAUCUCUGAGAGAAAUGCC [A6U U15C C63U U91C]	0.32
UACGUUGGUGGUUUUCCCCUGAUAGUGCUAAGGGGGCCUAGAAGUUUGGACUGGGCAGAGCUCAACACUGCGUGGCAAAGUGGCUGUGGCUAGACUGCCUCUCCGGAUUCCUCGUCACUCAGCAGGGCAUCUCUGAGAGAAAUGCC [A6U G40A A69U U104C]	0
UACGUUGGUGGUUUCCCCCUGGUAGUGCUAAGGGGGCCUUGAAGUUUGGACUGGGCAGGGCUCAACACAGCGUGGCAAAGUGGCUGUGGCUAGACUGCCUCUCUGGAUUCCUCGUCACUCAGCAGGGCAUCUCUGAGAGAAAUGCC [A6U U15C A22G G40U A59G]	0
UACGUUGGUGGUUCUCCCCUGAUAGUGCUAAGGGGGCCUGGAAGUUUGGACUGGGCAGAGCUUAACACAGCGUGGCAAAGUGGCUGUGGCUAGACUGCCUCUCUGGAUUCCUCGUCACUCAGCGGGGCAUCUCUGAGAGAAAUGCC [A6U U14C C63U A124G]	0.33
UACGUUGGUGGUUUUCCCCUGAUAGUGCUAAGGGGGCCUGGAAGUUAGGACUGGGCAGAGCUCAACACAGCGUGGCAAAGUGGCUGUGGCUAGACUGCCUCUCUGGAUCCCUCGUCACUCAGCAGGGCAUCUCUGAGAGAAACGCC [A6U U47A U109C U143C]	1.13
UACGUUGGUGGUUUUCCCCUGAUAGUGCUAAGGGGGCCUGGAAGUUUGGACAGGGCAGAGCUCAACACAGCGUGGCAAAGUGGCUGUGGCUAGACUGCCUCUCUGGAUUCUUCGUCACUCAGCAGGGCAUCUCUGAGAGAAAUGCC [A6U U52A C111U]	1.02
UACGUUGGUGGUUUUCCCCUGAUAGAGCUAAGGGAGCCUGGAAGUUUGGACUGGGCAGAGCUCAACACAGCGUGGCAAAGUGGCUGUGGCUAGACUGCCUCUCUGGAUUCCUCGUCACUCAGCAGGGCAUCUCUGAGAGAAAUGCC [A6U U26A G35A]	1.15
UACGUUGGUGGUUAUCCCCUGAUAGUGCUAAGGGGGCCUGGAAGUUUGGACUGGGCAGAGCUCAACACAGCGUGGCAAAGUGGCUGUGGCUAGACUGCCUCUCUGGAUUCCUCGUCACUCAGCAGGGUAUCUCUGAGAGAAAUGCC [A6U U14A C128U]	0.37
UACGUUGGUGGUUUCCCCCUGAUAGUGCUAAGGGGGCCUGGAAGUUUGGGCUGGGCAGAGCUCAACACAGCGUGGCAAAGAGGCUGUGGCUAGACUGCCUCUCUGGAUUCCUCGUCACUCAGCAGGGCAUCUCUGAGAGAAAUGCC [A6U U15C A50G U81A]	1.44
UACGUUGGUGGUCUUCCCCUGAUAGUGCUAAGGGGGCCUGGAAGUUUGGACUGGGCAGAGCUCAACACAGCGUGGCAAAGUGGCUGUGGCUAGACUGCCUCUCUGGAUUCCUCGUCACUCUGCAGGGCAUCUCUGAGAGAAAUGCC [A6U U13C A121U]	1.19
UACGUUGGUGGUUUACCCCUGAUAGUGCUAAGGGGGCCUGGAAGUUUGGACUGGGCAUAGCUAAACACAGCGUGGCAAAGUGGCUGUGGCUAGACUGCCUCUCUGGAUUCCCCGUCACUCAGCAGGGCAUCUCUGAGGGAAAUGCC [A6U U15A G58U C63A U112C A138G]	0.12
UACGUUGGUGGUUUUCCCCUGAUAGUGCUAAGGGGGCCUGGAAGUUUGGACUGGGCAGAGCUCAACACAGCGUGGCAAAAUGGCUGUGGCUAGACUGCCUCUCUGGAUUCCUCGUCACUCAGCAGGGCAUCUCUGAGAGAAACGCC [A6U G80A U143C]	1.19
UACGUUGGUGGUUUUCCCCUGAUAGUGCUAAGGGGGCCUGGAAGUUUGGACUGGGCAGAGCUCAACACAGCGUGGCAAAGUGGCUGUGGCUAGACCGUCUCUCUGGAUUCCUCGUCACUCAGCAGGGCAUCUCUGAGAGAAAUGCC [A6U U96C C98U]	0.29
UACGUUGGCGGUUCUCCCCUGAUAGUGCUAAGGGGGCCUGGAAGUUUAGACUGGGCAGAGCUCAACACAGCGUGGCAAAGUGGCUGUGGCUAGACUGCCUCUCUGGAUUCCUCGUCACUCAGCAGGGCAUCUCUGAGAGAAAUGCC [A6U U9C U14C G48A]	0.85
UACGUUGGUGGUUUUCCCCUGAUAGUGCUAAGGGGGCCUGGAAGUUUGGACUGGGCAGAGCUCAACACAGCGUGGCAAAGUGGCUGAGGCUAGACUGCCUCUCUGGAUUCCUCGACACUCAGCAGGGCAUCUCUGAGAGAAAUGCC [A6U U87A U115A]	0.17
UACGUUGGUGGUUUUCCCCUGAUAGUGCUAAGGGGGCCUGGAAGUUUGGACUGGGCAGAGCUUAACACAGCGUGGCAAGGUGGCUGUGGCUAGACUGCCUCUCUGGAUUCCUCGUCACUCAACAGGGCAUCUCUGAGAGAAAUGCC [A6U C63U A79G G122A]	0.37

Variant	self-cleavage
UACGUUGGUGGUUUUCCCCUGAUAGUGCUAAGGGAGCCUGGAAGUUUGGACUGGGCAGGGCUCAACACAGCGUGGCAAAGUGGCUGUGGCUAGACUGCCUCUCUGGAUUCCUCGUCACUCAGCAGGACAUCUCUGUGAGAAAUGCC [A6U G35A A59G G127A A136U]	0.09
UACGUUGGUGGUUUUCCCCUGAUAGUGCUAAGGGGGCCUGGAAGAUUGGACUAGGCAGAGCUCAACACAGCGUGGCAAAGUGGCUGUGGCUAGACUGCCUCUUUGGAUUCCUCGUCACUCAGCAGGGCAUCUCUGAGAGAGAUGCC [A6U U45A G53A C103U A141G]	0.78
UACGUUGGUGGUUUUCCCCUGAUAGUGCUAAGGGGGCCUGGAAGUUUGGACUGGGCAGAGCUAAACACAGCGUUGCACAGUGGCUGUGGCUAGACCGCCUCUCUGGAUUCCUCGUCACUCAGCAGGGCAUCUCUGAGAGAAAUGCC [A6U C63A G74U A78C U96C]	0.07
UACGUUGGUGGUUUUCCCCUGAUAGUGCUAAGGGGGCCAGGAAGUUUGGACUGGGCAGAGCUCAACACAGCGUGGCAAAGCGGCUGUGGCUAGACUGCCUCUCUGGAUUCCUCGUCACUCAGCAGGGCAUCUCUGAGAGAAAAGCC [A6U U39A U81C U143A]	0.31
UACGUUGGUGGUUUUCCCCUGAUAGUGCUAAGGGGGCCUGGAAGUUUGGACUGGGCAGAGCUCAACACAGCGUGGCAAAGUGACUGUGGCUAGACUGCCUCUCUGGAUUCCUCGUCACCCAGCAGGGCAUCUCCGUGAGAAAUGCC [A6U G83A U119C U134C A136U]	1.84
UACGUUGGUGGUUUUCCCCUGAUAGUGCUAAGGGGGCCUGGAAGUUUGGACUGGGCAGAGCUCAACACAGCGUGGCAAAGUGGCUGUGGCUAGACUGCCUCUCUGGAUUCAUCGUCACUCAGCAGGGCAUCUCUGAGAGGAAUGCC [A6U C111A A140G]	0.61
UACGUUGGUGGUUUGCCCCUGAUAGUGCUAAGGGGGCCAGGAAGUUUGGACUGGGCAGAGCUCAACACAGCGCGGCAAAGUGGCAGUGGCUAGACUGCCUCUCUGGAUUCCUCGUCACUCAGCAGGGCAUCUCAGAGUGAAAUGCC [A6U U15G U39A U73C U85A U134A A138U]	0.18
UACGUUGGUGGUUUUCCCCUGAUAGUGCUAAGGGGGCCUGGAAGUUUGGACUGGGCAGAGCUCAACACAGCGUGGCAAAGUGGCUGUGGCUAGACUGCCUCCCUGGAUUCCUCGUCACUCAGCAGGGCAUCCCUGAGAGAAAUGCC [A6U U102C U132C]	1.37
UACGUUGGUGGUUUUCCCCUGACAGUGCUAAGGGGGCCUGGAAGUUCGGACUGGGCAGAGCUCAACACAGCGUGGCAAAGUGGCUGUGGCUAGACCGCCUCUCUGGAUUCCUCGUCACUCAGCAGGGCAUCUCUGAGAGAAAUGCC [A6U U23C U47C U96C]	0
UACGUUGGUGGUUUUCCCCUGAUAGUGCUAAGGGGGCCUGGAAGUUUGGACUGGGCAGAGCUCAACACAGCGUGGCAAAGCGGCAGUGGCAAGACUGCCUCUCUGGAUUCCUCGUCACUCAGCAGGGCAUCUCUGAGAGAAAUGCC [A6U U81C U85A U91A]	0.28
UACGUUGGAGGUUUUCCCCUGAUAGGGCUAAGGGGGCCUGGAAGUUUGGACUGGGCAGAGCUCAACACAGCGUGGCAAAGUGGCUGUGGCUAGACUGCCUCUCUGGAUUCCUCGUCACUCAGCAGGGCAUCUCUGAGAGAAAUGCC [A6U U9A U26G]	1
UACGUUGGUGGUUUUCCCCUGAUAGCGCUAAGGGGGCCUGGAAGUUUGGACUGGGCAGAGCUCAACACAGCGUGGCUAAGUGGCCGUGGCUAGACUGCCUCUCUGGAUUCCUCGUCACUCAGCAGGGCAUCUCUGAGAGAAAUGCC [A6U U26C A77U U85C]	0
UACGUUGGUGGCUUUCCCCUGACAGUGCUAAGGGGGCCUGGAAGUUUGGACUGGGCAGAGCUCAACACAGCGUGGCAAAGUGGCUGUGGCUAGACUGCCUCUCUGGAUUCCUCGUCACUCAGCAGGGCAUCUCUGAGAGAAAUGCC [A6U U12C U23C]	1.33
UACGUUGGUGGUUUUCCCCUGAUAGCGCUAAGGGGGCCCGGAAGUUUGGACUGGGCAGAGCUCAACACAGCGUGGCAAAGUGGCUGUGGCUAGACUGCCUCUCUGGAUUCCUCGUCACUCAGCAGGGCAUCUCUGAGAGGAAUGCC [A6U U26C U39C A140G]	1.21
UACGUUGGUGGUUUUCCCCUGAUAGUGCUAAGGGGGCCUGGAAGUUUGGACUGGGCAGAGCUCAACACAGCGUGGCAAAGUGGCUGUGGCUAGACUGCCUCUCUGGAUUCCUCGUCACUCAGCAGGGCAUCCCCGAGAGAAAUGCC [A6U U132C U134C]	1.1
UACGUUGGUGGUUUUCCCCUGAUAGUGCUAAGGGGGCCUGGAAGUUUGGACUGGGCAGAGCUCAACACAGCGUGGCAAAGUGGCUGUGGCUAGACAGCCUCUCUGGAUUCCUCGUCACUCAGCAGGGCAUCUCCGAGAGAAAUGCC [A6U U96A U134C]	0.05
UACGUUGGUGGAUUACCCCUGAUAGUGCUAAGGGGGCCUGGAAGUUUGGACUGGGCAGAGCUCAACACAGCGUGGCAAAGUGGCUGUGGCUAGACUGCCUCUCUGGAUUCCUCGUCACUCAGCAGGGCAUCUCUGAGAGAAAUGCC [A6U U12A U15A]	0.89
UACGUUGGCGGUUUUCCCCUGAUAAUGCUAAGGGGGCCUGGAAGUUUGGACUGGGCAGAGCUCAACACAGCGUGGCAAAGUGGCUGUGGCUAGACUGCCUCUCUGGAUUCCUCGUCACUCAGCAGGGCAUCUCUGAGGGGAAUGCC [A6U U9C G25A A138G A140G]	0.88
UACGUUGGUGGUUUUCCCCUGAUAGUGCUAAGGGGGCCUGGAAGCUUGGACUGGGCUGAGCUCAACACAGUGUGGCAAAGUGGCUGUGGCUAGGCUGCCUCUCAGGAUUCCUCGUCACUCAGCAGGGCAUCUCUGAGAGAAAUGCC [A6U U45C A57U C71U A94G U104A]	0.3
